Results are given in words; binding and its absence hold for the method and conditions named. For part of these data: In cells and extracts the contact can be indirect. Some binding calls cover weakened binding; strength is not graded here. For part of these data: Sequences can lack the tags named with a protein. One block for each binder: values may come before it.
Tests used:
[1] = molecular target: T1, CROWDED NUCLEI 3 (CRWN3), yeast two-hybrid fusion (Arabidopsis thaliana) (UniProt Q9CA42); experiment: two-hybrid; CRWN1-4 in pGADT7 (prey) and pGBKT7 (bait), Y2HGold yeast; growth on SD/-Leu/-Trp/-His
T1 sequence: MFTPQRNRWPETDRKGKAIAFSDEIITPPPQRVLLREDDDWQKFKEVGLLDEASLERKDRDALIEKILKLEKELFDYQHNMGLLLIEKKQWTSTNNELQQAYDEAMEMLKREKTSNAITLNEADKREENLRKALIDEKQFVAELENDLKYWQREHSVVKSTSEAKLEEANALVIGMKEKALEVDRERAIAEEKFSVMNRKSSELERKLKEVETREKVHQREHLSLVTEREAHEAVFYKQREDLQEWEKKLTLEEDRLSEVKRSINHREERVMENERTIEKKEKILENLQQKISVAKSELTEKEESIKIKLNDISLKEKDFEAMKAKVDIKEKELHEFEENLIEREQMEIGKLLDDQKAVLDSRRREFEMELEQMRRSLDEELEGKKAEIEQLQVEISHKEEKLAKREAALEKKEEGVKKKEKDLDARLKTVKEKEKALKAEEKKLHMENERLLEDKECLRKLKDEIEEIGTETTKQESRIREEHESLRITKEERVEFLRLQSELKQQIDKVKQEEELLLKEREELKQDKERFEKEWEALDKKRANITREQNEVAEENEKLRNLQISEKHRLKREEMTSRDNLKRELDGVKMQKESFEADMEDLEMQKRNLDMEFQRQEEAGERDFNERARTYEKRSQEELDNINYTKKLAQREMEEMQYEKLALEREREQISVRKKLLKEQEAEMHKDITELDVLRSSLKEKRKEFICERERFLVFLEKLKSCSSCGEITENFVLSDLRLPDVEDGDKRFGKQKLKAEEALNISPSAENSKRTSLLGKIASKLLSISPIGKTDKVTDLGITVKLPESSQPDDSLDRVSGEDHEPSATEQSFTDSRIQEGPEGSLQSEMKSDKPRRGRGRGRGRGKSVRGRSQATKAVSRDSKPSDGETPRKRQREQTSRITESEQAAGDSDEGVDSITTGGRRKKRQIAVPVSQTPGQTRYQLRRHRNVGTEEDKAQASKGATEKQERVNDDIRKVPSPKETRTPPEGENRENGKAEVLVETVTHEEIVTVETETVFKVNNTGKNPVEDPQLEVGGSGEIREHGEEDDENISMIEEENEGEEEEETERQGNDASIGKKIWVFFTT

[2] = molecular target: T2, CROWDED NUCLEI 3 (CRWN3), fluorescent protein-conjugated (co-immunoprecipitation) (Arabidopsis thaliana) (UniProt Q9CA42); experiment: co-IP; GFP- and tagRFP-conjugated CRWNs transiently expressed in Nicotiana benthamiana leaves; soluble lysate in µMACS lysis buffer; anti-GFP magnetic beads (µMACS GFP Isolation Kit), 4 °C, 30 min; western blot with anti-GFP and anti-tagRFP
T2 sequence: T1 sequence

[3] = molecular target: T3, CROWDED NUCLEI 2 (CRWN2), fluorescent protein-conjugated (co-immunoprecipitation) (Arabidopsis thaliana) (UniProt Q9SAF6); experiment: as above
T3 sequence: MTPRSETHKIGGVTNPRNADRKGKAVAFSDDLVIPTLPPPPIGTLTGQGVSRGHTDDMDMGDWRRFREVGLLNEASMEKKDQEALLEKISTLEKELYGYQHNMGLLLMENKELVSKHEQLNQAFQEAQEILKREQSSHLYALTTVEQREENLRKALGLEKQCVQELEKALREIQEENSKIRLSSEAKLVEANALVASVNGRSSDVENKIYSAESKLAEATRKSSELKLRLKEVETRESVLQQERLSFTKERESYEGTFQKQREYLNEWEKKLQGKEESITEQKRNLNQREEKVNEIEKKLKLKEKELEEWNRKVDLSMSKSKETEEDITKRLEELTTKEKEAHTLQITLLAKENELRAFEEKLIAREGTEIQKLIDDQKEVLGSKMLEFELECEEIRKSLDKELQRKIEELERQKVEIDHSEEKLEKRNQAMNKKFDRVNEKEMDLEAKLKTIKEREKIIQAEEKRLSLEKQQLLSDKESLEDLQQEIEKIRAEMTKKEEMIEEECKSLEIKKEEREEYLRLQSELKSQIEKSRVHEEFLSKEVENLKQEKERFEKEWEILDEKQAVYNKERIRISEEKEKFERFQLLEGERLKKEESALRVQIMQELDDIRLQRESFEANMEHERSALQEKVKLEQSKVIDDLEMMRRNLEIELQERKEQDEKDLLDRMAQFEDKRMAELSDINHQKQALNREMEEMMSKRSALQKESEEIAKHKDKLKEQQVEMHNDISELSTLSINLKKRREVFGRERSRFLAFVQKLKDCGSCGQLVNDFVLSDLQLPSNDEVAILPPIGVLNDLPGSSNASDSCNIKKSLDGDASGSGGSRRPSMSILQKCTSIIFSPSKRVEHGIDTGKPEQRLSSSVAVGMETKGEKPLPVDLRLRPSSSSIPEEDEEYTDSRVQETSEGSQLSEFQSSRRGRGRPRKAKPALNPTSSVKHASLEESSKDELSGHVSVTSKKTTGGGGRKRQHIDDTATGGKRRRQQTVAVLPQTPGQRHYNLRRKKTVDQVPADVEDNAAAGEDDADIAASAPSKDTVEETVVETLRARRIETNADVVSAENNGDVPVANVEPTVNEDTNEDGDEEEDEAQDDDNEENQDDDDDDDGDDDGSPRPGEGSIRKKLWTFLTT

[4] = molecular target: T4, CROWDED NUCLEI 2 (CRWN2), yeast two-hybrid fusion (Arabidopsis thaliana) (UniProt Q9SAF6); experiment: two-hybrid; CRWN1-4 in pGADT7 (prey) and pGBKT7 (bait), Y2HGold yeast; growth on SD/-Leu/-Trp/-His
T4 sequence: T3 sequence

B3: CROWDED NUCLEI 4 (CRWN4), fluorescent protein-conjugated (co-immunoprecipitation) (protein, UniProt Q9FLH0 1-1010)
chain: MATSSRSERFPITPSTAATNRLTITPNSRVLKSPLTEEIMWKRLKDAGFDEQSIKNRDKAALIAYIAKLESEVYDYQHNMGLLLLEKNELSSQYEEIKASVDESDLTHMREKSAYVSALAEAKKREESLKKDVGIAKECISSLEKTLHEMRAECAETKVSAGSTMSEAHVMIEDALKKLADAEAKMRAAEALQAEANRYHRIAERKLKEVESREDDLTRRLASFKSECETKENEMVIERQTLNERRKSLQQEHERLLDAQVSLNQREDHIFARSQELAELEKGLDTAKTTFEEERKAFEDKKSNLEIALALCAKREEAVSERESSLLKKEQELLVAEEKIASKESELIQNVLANQEVILRKRKSDVEAELECKSKSVEVEIESKRRAWELREVDIKQREDLVGEKEHDLEVQSRALAEKEKDITEKSFNLDEKEKNLVATEEDINRKTTMLEDEKERLRKLDLELQQSLTSLEDKRKRVDSATQKLEALKSETSELSTLEMKLKEELDDLRAQKLEMLAEADRLKVEKAKFEAEWEHIDVKREELRKEAEYITRQREAFSMYLKDERDNIKEERDALRNQHKNDVESLNREREEFMNKMVEEHSEWLSKIQRERADFLLGIEMQKRELEYCIENKREELENSSRDREKAFEQEKKLEEERIQSLKEMAEKELEHVQVELKRLDAERLEIKLDRERREREWAELKDSVEELKVQREKLETQRHMLRAERDEIRHEIEELKKLENLKVALDDMSMAKMQLSNLERSWEKVSALKQKVVSRDDELDLQNGVSTVSNSEDGYNSSMERQNGLTPSSATPFSWIKRCTNLIFKTSPEKSTLMHHYEEEGGVPSEKLKLESSRREEKAYTEGLSIAVERLEAGRKRRGNTSGDETSEPSNNKKRKHDVTQKYSDEADTQSVISSPQNVPEDKHELPSSQTQTPSGMVVISETVKITRVTCETEVTNKVTTLDCSESPSEAGRKMGEETEDGDCNQTGINASETVIHNEAATEDICT
binding [3]: no binding
binding [2]: no binding

B4: CROWDED NUCLEI 4 (CRWN4), yeast two-hybrid fusion (protein, UniProt Q9FLH0 1-1010)
chain: B3 chain
binding [4]: no binding
binding [1]: no binding

More lines, now with the values ahead:

binding [1]: binds
B1: CROWDED NUCLEI 2 (CRWN2), yeast two-hybrid fusion (protein, UniProt Q9SAF6 1-1128)
chain: T3 sequence

binding [2]: binds
B2: CROWDED NUCLEI 2 (CRWN2), fluorescent protein-conjugated (co-immunoprecipitation) (protein, UniProt Q9SAF6 1-1128)
chain: T3 sequence

Reference: PMC7679404
